Test results published in PubChem BioAssay AID488969 (Vanderbilt High Throughput Screening Facility, 2010).
Several values for one entry are separate records, joined by “and”; a condition that tells them apart may be missing. Identical values can stand only once. Whole data set: some 110,000 compounds, median “z-score” near -0.1, cut for the highest 2% near 2. Some of the results follow. Activity calls are given as the source filed them.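 How the source made its calls: active means z-score in the third read window above 3 or below -3; inactive means the rest.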

Target: Metabotropic glutamate receptor 8 (Rattus norvegicus) (UniProt P70579)
Test: rat mGluR8 modulators via GIRK flux, primary screen, cell-based, thallium flux, HTS (AID 488969)
Settings: HEK293 rat mGluR8, GIRK (G protein-gated inwardly rectifying potassium channel) thallium flux, FluoZin2; at 10 µM; stronger effect = higher value; submaximal glutamate (EC20) added with thallium

Chain of UniProt P70579 (P70579 whole entry, looked up): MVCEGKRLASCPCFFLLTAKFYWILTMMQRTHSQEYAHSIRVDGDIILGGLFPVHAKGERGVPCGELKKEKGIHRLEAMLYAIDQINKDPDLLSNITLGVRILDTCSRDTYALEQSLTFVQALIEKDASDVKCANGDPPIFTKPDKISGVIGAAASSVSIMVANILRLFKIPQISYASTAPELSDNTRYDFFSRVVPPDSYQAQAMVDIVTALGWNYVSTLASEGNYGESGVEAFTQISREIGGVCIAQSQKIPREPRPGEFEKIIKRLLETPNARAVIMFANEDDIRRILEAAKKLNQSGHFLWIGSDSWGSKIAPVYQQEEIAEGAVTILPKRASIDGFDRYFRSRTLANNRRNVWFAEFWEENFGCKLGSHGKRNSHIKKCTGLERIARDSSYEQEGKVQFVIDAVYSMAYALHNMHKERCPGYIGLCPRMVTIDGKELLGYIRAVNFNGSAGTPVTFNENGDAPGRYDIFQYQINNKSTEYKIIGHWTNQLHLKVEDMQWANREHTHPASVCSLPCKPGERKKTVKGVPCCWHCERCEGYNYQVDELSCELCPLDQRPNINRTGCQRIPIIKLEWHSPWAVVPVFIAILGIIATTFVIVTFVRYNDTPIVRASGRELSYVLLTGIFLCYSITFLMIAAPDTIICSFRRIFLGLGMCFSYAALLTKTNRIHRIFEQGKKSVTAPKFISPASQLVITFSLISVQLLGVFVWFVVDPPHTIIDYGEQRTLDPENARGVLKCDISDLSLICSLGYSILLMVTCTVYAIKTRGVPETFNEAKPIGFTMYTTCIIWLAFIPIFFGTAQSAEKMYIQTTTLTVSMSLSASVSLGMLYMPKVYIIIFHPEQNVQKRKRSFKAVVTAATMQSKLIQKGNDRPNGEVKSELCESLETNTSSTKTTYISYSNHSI

In order of rising z-score:
1. Cc1nnc2sc(-c3cccc(NC(=O)c4cccnc4)c3)nn12  -2.98
2. Cc1cc2nc(SCCOC(=O)Nc3ccccc3)nc(C)c2cc1C  -1.51
3. COc1ccc(CNc2ccc(-c3ccc(OC)cc3)nn2)cc1  -1.25
4. COc1ccc(OC)c(-n2c(=O)c3ccccc3c3ccccc3c2=O)c1  -1.05
5. Cc1cc(C)nc(SCCCn2c(=O)[nH]c3ccccc32)n1  -0.982
6. CCOC(=O)c1c(-c2ccccc2)nc2ccc(C)cn12  -0.937
7. CCOc1ccc(NC(=O)C2CCN(S(=O)(=O)c3c(C)n[nH]c3C)CC2)cc1  -0.783
8. Cc1ccc2oc(-c3cccc(NC(=O)C4CCCO4)c3)nc2c1 (configuration not stated)  -0.78
9. C=CCSC(=C(C#N)C#N)c1cc2c([nH]1)CCCC2  -0.72
10. CC(C)CC(C(=O)O)C(C)CC(=O)Nc1ccn(-c2ccccc2)n1 (configuration not stated)  -0.632
11. O=C(CNC(=O)c1ccc(F)cc1)N/N=C/c1cn[nH]c1-c1ccccc1  -0.578
12. CCOc1cc(/C=N/O)cc(Br)c1OCC  -0.564
13. Nc1ncnc2c1ncn2CCOc1ccccc1  -0.53
14. O=C(CN1CCC(n2nnc3ccccc32)CC1)NCc1cccs1  -0.523
15. CN(C)/C=C1/C=C(c2ccccc2)OC1=O  -0.519
16. COc1ccc(NS(=O)(=O)c2cccc(Cl)c2Cl)cc1S(=O)(=O)N1CCCCC1  -0.511
17. Cc1nc(C)c(CCNC(=O)c2cccc(Cl)c2)s1  -0.511
18. CC1CCC(NC(=O)c2ccc(/C=C3\Oc4ccccc4N(C)C3=O)cc2)CC1 (configuration not stated)  -0.501
19. COc1cccc(NC(=O)c2ccc(Cn3cc([N+](=O)[O-])cn3)o2)c1  -0.478
20. CCOC(=O)CN1C(c2ccccc2O)Nc2ccc(Br)cc2C1c1ccccc1 (configuration not stated)  -0.45
21. C/C(=N/n1cnnc1)c1cccnc1  -0.439
22. CCN1C(=O)C(CC(=O)Nc2ccc(OC)cc2)N(Cc2ccc3c(c2)OCO3)C1=S (configuration not stated)  -0.389
23. CCN(CC)c1ccc(C(=O)OCc2cc(=O)oc3cc(O)ccc23)cc1  -0.383
24. O=C(Nc1ccc(S(=O)(=O)NC2CCCCC2)cc1)c1ccco1  -0.383
25. Cc1cnn(C(=S)NCCc2ccccc2)c1  -0.366
26. CCN(CC)S(=O)(=O)c1ccc(C(=O)NC2=C(C(=O)OC)SCC2)cc1  -0.366
27. COc1cc(NC(=S)N2CCN(C(=O)C3CCCO3)CC2)c(OC)cc1Cl (configuration not stated)  -0.362
28. CCCC(C)C(=O)Nc1ccccc1C(=O)OCC (configuration not stated)  -0.34
29. COc1ccc(Cl)cc1-c1nc(-c2ccc(NC(=O)c3cccs3)cc2)no1  -0.334
30. CCN(CC(=O)Nc1cccc(C(C)=O)c1)S(=O)(=O)c1ccc(OC)cc1  -0.323
31. COc1cc(NC(=S)NN2CCN(C)CC2)cc(OC)c1  -0.321
32. CC1=NN(C(=O)COc2ccc(C)c(C)c2)C(O)(c2ccc(Cl)cc2)C1 (configuration not stated)  -0.32
33. OC1C2CN3CCN(C2)CC1(Cc1ccccc1)C3 (configuration not stated)  -0.319
34. CC(C)(C)N1CC(c2nc3ccccc3n2Cc2ccc(Cl)cc2)CC1=O (configuration not stated)  -0.31
35. COCCn1c(SCC(N)=O)nnc1-c1c[nH]c2ccccc12  -0.303
36. O=C(CSc1ccc(-c2ccc(F)cc2)nn1)Nc1ccc2c(c1)OCCO2  -0.287
37. CCN(c1ccccc1)S(=O)(=O)c1cccc(C(=O)OCc2nc3sc(C)c(C)c3c(=O)[nH]2)c1  -0.263
38. O=C1c2cccc3cccc(c23)C(=O)N1c1ccc2ncccc2c1  -0.261
39. CSc1ccc(CNc2ccccc2)cc1  -0.243
40. Cc1noc(/C=C/N(C)C)c1S(=O)(=O)N1CCCC(C(=O)NCCC2=CCCCC2)C1 (configuration not stated)  -0.237
41. Nc1nc(NCC2CCCO2)nc(Nc2ccccc2)c1[N+](=O)[O-] (configuration not stated)  -0.232
42. CCc1ccc(OCC(=O)N(C)C)c(Br)c1  -0.23
43. O=C(CCNC(=O)c1ccccc1Cl)Nc1cccc(C(F)(F)F)c1  -0.204
44. CSc1ccc(/C=C/c2cc(=O)c3ccccc3[nH]2)cc1  -0.181
45. Nc1nc(NCc2ccccc2)nc(Nc2ccc(F)cc2)c1[N+](=O)[O-]  -0.178
46. CCn1c(SCc2ccc(Cl)cc2Cl)nc2nc3c(cc2c1=O)CCCC3  -0.163
47. CC(OC(=O)c1oc2ccccc2c1CSC1CCCCC1)C(=O)NC(N)=O (configuration not stated)  -0.156
48. CC(C)(C)c1[nH]c2ccccc2c1/C=N/O  -0.142
49. CCOC(=O)c1c(NC(=O)CSc2nc3ccccc3s2)sc(C(C)=O)c1C  -0.129
50. COc1cc(S(=O)(=O)Nc2ncccc2C)c(OC)cc1Cl  -0.119
51. Nn1c(SCC(=O)Nc2ccc3c(c2)OCO3)nnc1C1CC1  -0.116
52. Cc1cc(C)c(S(=O)(=O)N(C)CC(N)=O)c(C)c1  -0.115
53. CNc1nc(OC)nc(N2CCOCC2)n1  -0.113
54. O=C(Nc1ccccc1-c1nc2ccccc2[nH]1)c1ccc(S(=O)(=O)N2CCCCC2)cc1  -0.112
55. CN(C)c1ccnc2sc3c(=O)n(-c4ccc(Cl)cc4)cnc3c12  -0.112
56. CCOC(=O)NCC(C)(C)CNC(=O)OCC  -0.0942
57. COc1cc(S(=O)(=O)Nc2ccc(C)cc2)ccc1N=Cc1c(C)[nH]n(-c2ccccc2)c1=O  -0.093
58. CN(C(=O)C1CCOC1)c1nnc(-c2ccncc2)s1 (configuration not stated)  -0.0854
59. CCC(=O)c1cc2c(cc1NC(=O)c1ccc(C)cc1)OCCO2  -0.0769
60. COCCSc1ccccc1C(=O)Nc1nncs1  -0.0459
61. CCOC(=O)c1csc(NC(=O)Nc2cccc(Cl)c2)n1  -0.0455
62. CC(=O)c1ccc(NS(=O)(=O)Cc2ccc(Cl)cc2)cc1  -0.0445
63. CCOC(=O)c1c(C)[nH]c(C(=O)CSc2nnc(Nc3ccccc3F)s2)c1C  -0.0416
64. Cc1ccc2c(c1)N(CC(=O)NCC1CCCO1)C(=O)C(C)O2 (configuration not stated)  -0.0365
65. O=C1NC(=Nc2ccccc2)c2c1cccc2[N+](=O)[O-]  -0.0364
66. CCOC(=O)CSc1nc2ccc(N3CCOCC3)cc2c(=O)n1Cc1ccccc1  -0.0203
67. CCc1ccccc1N(CC(=O)OC)S(C)(=O)=O  -0.0143
68. N#C/C(=C\c1ccc(-c2ccccc2)o1)C(=O)Nn1cnnc1  -0.000705
69. Cc1cccc(NCN2C(=O)C3C4C=CC(C4)C3C2=O)c1 (configuration not stated)  0.00259
70. Cc1nn(C)cc1C1C2=C(CC(C)(C)CC2=O)N(c2ccccc2)C2=C1C(=O)CC(C)(C)C2  0.00482
71. CC(C)=CC/C=C1\CCC(C(=O)O)C(C(=O)O)C1 (configuration not stated)  0.0153
72. CCCc1nc2c(=O)n(C)c(=O)[nH]c2n1CCC  0.0166
73. COc1ccccc1-c1nnc(NC(=O)C(C)SC2=NCCS2)s1 (configuration not stated)  0.0255
74. O=C(Sc1nnnn1C1CCCCC1)c1cccs1  0.027
75. Cc1cccc(NC(=O)CCCN2C(=O)c3ccccc3C2=O)n1  0.0335
76. COc1ccc(/C=N/NC(=O)CCc2n[nH]c(=O)[nH]c2=O)cc1OC  0.0361
77. COC(=O)c1ccc2c(c1)N(Cc1nc(-c3cccc(C)c3)oc1C)C(=O)C1CCCN21 (configuration not stated)  0.0455
78. Cc1ccc(NC(=O)[C@@H]2CCCN2S(=O)(=O)c2ccccc2F)cc1S(=O)(=O)N1CCOCC1  0.0593
79. CCCCCCc1cc2cc(S(=O)(=O)c3ccc(F)c(Cl)c3)c(=O)oc2cc1O  0.064
80. O=C(Nc1ncc(Cc2ccccc2Cl)s1)C1CCCO1 (configuration not stated)  0.12
81. COc1cc2c(C#N)c(N3CCOCC3)nc(N)c2c(N)n1  0.122
82. CCCn1c(NC(=O)c2ccc(Br)cc2)nc2ccccc21  0.157
83. O=C(CCN1C(=O)COc2ccccc21)NCc1cccs1  0.171
84. O=C(NCc1ccc2c(c1)OCO2)C1CC(c2ccc(Cl)cc2)=NO1 (configuration not stated)  0.177
85. COC(=O)c1c(NC(=O)CSc2ncnc3c2cnn3-c2ccccc2Cl)sc2c1CCCC2  0.181
86. Cc1cccc(CS(=O)(=O)Cc2ccc(C(=O)NCC3CCCO3)o2)c1 (configuration not stated)  0.188
87. N#C/C(=C\c1ccc(OC(=O)c2cccs2)cc1)c1nc2ccccc2[nH]1  0.191
88. Cc1cccc2c(=O)c(C(=O)NCCCN3CCOCC3)c[nH]c12  0.205
89. CCC(CC)C(=O)Nc1cccc(C(=O)N2CCOCC2)c1  0.227
90. Cc1cc(C)n(S(=O)(=O)c2ccc(C)c(C)c2C)n1  0.242
91. CCn1cc(C(=O)NCC(=O)OC)c2cc(OC)c(OC)cc2c1=O  0.247
92. CC(C)(C)NC(=O)CSc1nncn1NCc1ccccc1  0.249
93. CC(C)CCNC(=O)C1C2C=CC3(CN(Cc4ccccc4Cl)C(=O)C13)O2 (configuration not stated)  0.263
94. Fc1ccc(-c2ccnc(=S)[nH]2)cc1  0.44
95. c1ccc(-c2ccccc2OCCOCCN2CCCCC2)cc1  0.49
96. O=[N+]([O-])c1nn(-c2ccc3c(c2)OCCO3)n(O)c1=Nc1ccc(Cl)cc1  0.501
97. Cc1ccc(S(=O)(=O)N2CCN(Cc3cccc(C)c3O)CC2)cc1  0.58
98. C=CCn1c(C)cc(C(=O)CN2C(=O)c3ccccc3C2=O)c1C  0.595
99. COc1ccccc1NC(=O)Cn1c(=O)n2nc(C)nc2c2ccccc21  0.659
100. Cc1nn(Cc2ccccc2)c(C)c1/C=N/NC(=O)c1cccnc1  0.708
101. Cc1cccc(NS(=O)(=O)c2cc(C(=O)OCC(=O)Nc3cc(C)on3)ccc2C)c1  0.725
102. COC(=O)c1[nH]c2cccc(OC)c2c1NC(=O)CN1CC2(C)CC1CC(C)(C)C2 (configuration not stated)  0.828
103. COc1cccc(C(C(=O)NC2CCCCC2)N(CC2CCCO2)C(=O)CNC(=O)c2ccco2)c1 (configuration not stated)  0.969
104. CCCCn1nnnc1SCC(=O)N1CCN(C(=O)c2ccco2)CC1  1.19
105. O=C(c1ccccc1)c1ccncc1  1.21
106. O=C(NC(=S)NCc1ccccc1)c1ccccc1F  1.93
107. CN1CCC(=NNC(=O)C(=O)NC2CCCCC2)CC1  2.04
108. C=CCNC(=O)NC(=O)CSc1nc2cc([N+](=O)[O-])ccc2n1-c1cccc(C(F)(F)F)c1  2.75

For C=CCN(CC=C)C(=S)NC(=O)c1ccc(OC)c(Br)c1, the z-score was active: 15.4.
For S=c1[nH]nc(CSc2nc3ccccc3s2)n1C1CCCCC1, the z-score was active: 14.9.
In the case of CCSc1nc2ccccc2[nH]1, the z-score is reported as 0.692 and -0.162.
In the case of Cc1cccc(N=C2NC(=O)/C(=C/C=C/c3ccco3)S2)c1C, the z-score is reported as active: 3.
